# The list shows a part of the results. Viral Rep nickase domains cut single-stranded DNA in vitro at 3 µM enzyme and 37 °C for 1 h; the strands have 90 letters, of which the middle is given. The score is log2 (uncut reads / reads without enzyme); uncut sequences lie near 0, cut ones below; no hit call is given. Reads are scaled to the total; where an enzyme cuts many sequences, the uncut ones exceed 0.
# How the values were obtained:
# Test in all cases: uncleaved DNA left, log2 of reads against the no-enzyme library (log2 ratio); higher = less cleavage (more negative = more Rep cleavage of the k-mer); sequences stand for … in CTCGTCCG…ACCGGAGA
# [1] = test system: T1, Rep nickase domain of Muscovy duck circovirus
# T1 sequence (Rep 1-111, printed without the tag): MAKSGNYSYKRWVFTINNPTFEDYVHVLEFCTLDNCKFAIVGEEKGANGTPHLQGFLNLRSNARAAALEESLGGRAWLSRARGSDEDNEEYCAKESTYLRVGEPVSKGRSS
# Experimental: (§1)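 A pool of 90-nt single-stranded DNAs with seven random bases just before the constant AC of the nick site (name = the seven bases) was cut by 3 µM recombinant His6-SUMO-tagged Rep nickase domain (300 nM DNA, 50 mM HEPES pH 8.0, 50 mM NaCl, 1 mM MnCl2, 1 h, 37 °C, three replicates). Uncut DNA was amplified and sequenced.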
# [2] = test system: T2, Rep nickase domain of banana bunchy top virus
# T2 sequence (Rep 1-94, printed without the tag): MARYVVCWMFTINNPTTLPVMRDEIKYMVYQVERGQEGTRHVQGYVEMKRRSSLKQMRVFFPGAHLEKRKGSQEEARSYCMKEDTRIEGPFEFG
# Experimental: as §1
# [3] = test system: T3, Rep nickase domain of cabbage leaf curl virus
# T3 sequence (Rep 1-116, printed without the tag): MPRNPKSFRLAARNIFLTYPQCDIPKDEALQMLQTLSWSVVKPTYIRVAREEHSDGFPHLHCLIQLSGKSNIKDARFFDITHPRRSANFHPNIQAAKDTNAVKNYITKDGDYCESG
# Experimental: as §1
# [4] = test system: T4, Rep nickase domain of chickpea chlorotic dwarf virus
# T4 sequence (Rep 1-124, printed without the tag): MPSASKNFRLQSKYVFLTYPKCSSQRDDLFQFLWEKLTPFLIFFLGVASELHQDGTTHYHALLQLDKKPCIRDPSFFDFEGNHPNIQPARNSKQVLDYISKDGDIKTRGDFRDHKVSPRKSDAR
# Experimental: as §1
# [5] = test system: T5, Rep nickase domain of faba bean necrotic yellows virus
# T5 sequence (Rep 1-98, printed without the tag): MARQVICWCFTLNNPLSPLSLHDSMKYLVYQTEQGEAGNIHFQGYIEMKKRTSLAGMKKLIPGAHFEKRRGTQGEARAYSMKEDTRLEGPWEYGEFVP
# Experimental: as §1
# [6] = test system: T6, Rep nickase domain of maize striate mosaic virus
# T6 sequence (Rep 1-117, printed without the tag): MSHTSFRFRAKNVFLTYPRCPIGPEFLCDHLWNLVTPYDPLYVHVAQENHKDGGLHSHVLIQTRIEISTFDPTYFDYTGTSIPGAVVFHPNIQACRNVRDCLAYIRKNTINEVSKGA
# Experimental: as §1
# [7] = test system: T7, Rep nickase domain of porcine circovirus 2
# T7 sequence (Rep 2-116, printed without the tag): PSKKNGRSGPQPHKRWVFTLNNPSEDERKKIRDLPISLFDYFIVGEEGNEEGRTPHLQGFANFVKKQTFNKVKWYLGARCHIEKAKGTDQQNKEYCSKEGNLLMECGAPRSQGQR
# Experimental: as §1
# [8] = test system: T8, Rep nickase domain of tomato golden mosaic virus
# T8 sequence (Rep 1-124, printed without the tag): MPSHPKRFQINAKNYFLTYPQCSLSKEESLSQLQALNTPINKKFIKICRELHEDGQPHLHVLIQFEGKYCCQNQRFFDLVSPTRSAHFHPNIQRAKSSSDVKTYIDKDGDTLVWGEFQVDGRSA
# Experimental: as §1
# [9] = test system: T9, Rep nickase domain of tomato yellow leaf curl virus
# T9 sequence (Rep 1-136, printed without the tag): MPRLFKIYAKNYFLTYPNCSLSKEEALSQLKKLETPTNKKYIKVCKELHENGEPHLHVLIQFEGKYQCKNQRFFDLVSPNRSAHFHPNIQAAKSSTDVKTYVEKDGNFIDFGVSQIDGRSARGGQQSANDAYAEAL
# Experimental: as §1
# [10] = test system: T10, Rep nickase domain of wheat dwarf virus
# T10 sequence (Rep 1-137, printed without the tag): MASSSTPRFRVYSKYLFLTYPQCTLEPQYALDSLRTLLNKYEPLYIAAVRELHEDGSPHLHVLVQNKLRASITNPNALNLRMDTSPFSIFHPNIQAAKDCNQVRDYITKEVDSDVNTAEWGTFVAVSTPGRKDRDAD
# Experimental: as §1
Sequence,uncleaved DNA left (log2) [1],uncleaved DNA left (log2) [2],uncleaved DNA left (log2) [3],uncleaved DNA left (log2) [4],uncleaved DNA left (log2) [5],uncleaved DNA left (log2) [6],uncleaved DNA left (log2) [7],uncleaved DNA left (log2) [8],uncleaved DNA left (log2) [9],uncleaved DNA left (log2) [10]
ACTAATC,0.0712,-0.0187,-0.0703,-0.11,0.0591,-0.711,0.194,0.0952,-0.0514,0.0835
CGAGTAC,0.0469,-0.0472,0.0601,0.0806,0.0196,0.0591,-0.141,-0.0629,-0.015,0.0382
GGTATAG,-0.022,0.0762,0.113,0.579,0.0026,-0.0418,0.16,-0.0377,0.175,0.104
CCAAGTT,-0.143,-0.0753,-0.257,-0.45,-0.186,0.745,-0.017,-0.157,-0.242,-0.255
GGTTATG,0.0156,-0.0155,0.177,0.482,-0.119,0.385,0.14,0.0693,0.0583,-0.0249
GTTGTCT,-0.0396,0.0383,0.261,0.605,0.0334,1.1,0.113,0.0843,0.021,0.0258
ACTTCTT,-1.79,-0.614,-0.415,-2.93,0.0729,-0.961,-3.03,-0.167,-0.21,-0.182
AGTGGTA,0.0565,-0.0954,0.0905,0.523,-0.0461,1.12,-0.546,0.0979,0.027,0.00724
TGTCATA,0.0947,0.0949,0.227,0.0326,0.0172,0.657,-0.0595,-0.0516,0.175,0.151
CCATGTG,0.12,0.0185,-0.614,0.26,0.0631,-0.588,0.252,-0.0423,0.16,-0.0087
ACATGTT,-3.55,-0.323,-1.46,-2.92,0.117,-1.04,-3.33,-0.295,-0.0688,-0.4
TATTATT,-3.89,-3.85,-3.86,-4.07,-3.75,-2.8,-4.18,-3.64,-0.0317,-4.07
AATCTAA,0.0103,0.157,-0.064,-0.485,0.0143,-0.438,-0.0438,0.0699,0.0803,0.0846
CCTAATC,0.0064,-0.00652,0.0276,-0.153,-0.000636,-0.599,-0.115,-0.144,-0.055,-0.0308
AGAATGT,0.0453,-0.00359,0.04,0.211,0.122,0.13,-0.183,-0.05,0.0295,0.0899
GGTTCTA,-0.109,0.0136,0.355,0.962,-0.131,1.73,-0.0361,-0.049,0.00594,0.0612
ATCCCAG,0.108,0.0975,-0.54,-0.561,0.0955,-0.866,0.268,0.157,0.113,0.00117
CTACCCG,-0.0276,-0.0439,-0.945,-1.43,-0.00561,-0.917,-1.07,0.0463,-0.0714,-0.174
TCAGCCA,-0.0145,0.00334,0.0254,-1.2,-0.0995,-0.784,-0.164,-0.0177,-0.0329,-0.069
CACAACA,-0.0852,-0.0245,-0.324,-2.67,-0.106,-0.749,-0.0597,-0.0589,-0.0556,-0.0368
ACTATAC,0.129,-0.155,-0.243,-0.831,-0.0444,-0.882,-0.021,0.0489,-0.0963,-0.0399
CCCCCGT,-0.288,-0.0824,-0.452,-0.894,-0.17,-1.03,-0.276,-0.114,-0.255,-0.251
TCAAGCC,-0.0819,-0.118,-0.417,-1.2,-0.0481,-0.543,0.154,-0.071,-0.0914,-0.0814
TGCAAAC,-0.0654,-0.0426,0.241,0.429,0.082,0.609,0.0431,0.00756,-0.0363,0.0475
GCATATA,-0.0475,0.0743,-0.00332,-0.439,0.0409,-0.00853,0.0568,0.0181,0.0363,0.0748
GCGTTAG,-0.0499,-0.115,-0.146,0.162,0.0556,-0.788,0.0366,0.1,-0.0807,-0.0704
TAGCATA,0.166,0.172,-0.251,-2.14,0.165,-0.25,-1.74,0.0597,0.0654,0.122
TTTGGTG,-0.0356,-0.194,-0.659,-0.727,0.0412,-1.14,0.0556,-0.148,-0.0174,-0.198

# Reference: the supplement of paper PMC7826260
